Experimental data published in the supplement of paper PMC11417369.
± gives the standard deviation of the averaged measurements. This is one part of the list.

System: PfAP2-G AP2 domain (GST-tagged)
Assay: gcPBM binding intensity (ln(normalized median fluorescence intensity)); higher = stronger DNA binding
Outline: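 Using an Agilent 4 × 180k array, primer-extended double-stranded 36-bp intergenic genomic probes and negative controls were exposed for 1 h to GST-fused P. falciparum DNA-binding domains expressed in E. coli. Binding was carried out in 1× PBS with 1% milk, 0.2 mg/ml BSA, 0.5% salmon testes DNA and 0.03% Triton X-100, and protein was detected with Alexa488 anti-GST antibody and a 488 nm scan. Binding intensity is the highest Masliner-normalised natural-log median intensity across replicate spots of either probe orientation.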

| Sequence | gcPBM binding intensity (ln) |
| --- | --- |
| AAAATATTTATTTTTTGTACACATAAAAACGCACTT [XGTACX_site4132] | 11.4 ± 0.82 |
| CATATTTTGTGAAAAAGTACATATATATATATATAT [XGTACX_site6295] | 11.4 ± 0.98 |
| AGAATGGTTTATAAAGGTACGTAATTTTTAATTTTA [XGTACX_site383] | 10.9 ± 0.52 |
| AAACGTATTCTATAAAGTACATTATTATAGTAGACC [XGTACX_site8068] | 11 ± 0.61 |
| TATTGAATAAAATGCACACGCATGCGTTATTTATTA [CACACA_site3479] | 9.915 ± 0.035 |
| TAAAAAAATTATATTTGTACATATTAATATAGCCTT [XGTACX_site4833] | 10.9 ± 0.56 |
| TATATAAATATATCCACACACATACCTATATTAATA [CACACA_site6184] | 10.1 ± 0.23 |
| GTATTGTATGGATGGGGTACTATATATATATATTTT [XGTACX_site1694] | 11.3 ± 0.83 |
| ACTTTCAACATGAAGTTGCACTTTTTTTTTTTTCTT | 10.09 ± 0.049 |
| TAAGGGAGAGATTTGTATCATAAGCAACTTTCAAAA [CACACA_negctrl_site1436] | 9.96 ± 0.28 |
| TTATAATTAAATTTCACACAGTTCATAACATAATTA [CACACA_site5501] | 9.82 ± 0.085 |
| TTTATATGTTTTAAGTGTACACATATAATGTATTTT [XGTACX_site3069] | 11.6 ± 0.91 |
| TTTTTTAAAAATAACTGTACAGAGGCTGTTAGGATA [XGTACX_site2521] | 11 ± 0.4 |
| TAATTAAATAAAAAAAAATATATATATATATATATA [XGTACX_negctrl_site616] | 10.1 ± 0.87 |
| AGACAATATTAATAAGGTACACATATATATTAAAAA [XGTACX_site6709] | 11.2 ± 0.86 |
| TAAATATATAAATACACACACACCAAAGCAATAGAT [CACACA_site5605] | 10.4 ± 0.23 |
| AAAAAAAAAAAAGAAACACACACATATATATATATA [CACACA_site8525] | 9.78 ± 0.4 |
| AGCAGTCGACAGGACAGTACACAGTAGCCAGGAAAT [XGTACX_site4929] | 11 ± 0.7 |
| TCCATATGCATGTATTGTACTGTAATATATTAAAAA [XGTACX_site472] | 10.9 ± 0.64 |

| Sequence | gcPBM binding intensity (ln) |
| --- | --- |
| AAAAAAAAAAAAAAATGTACATGACATGACATGACA [XGTACX_site4020] | 10.9 ± 0.47 |
| TTATATTTTACAAATGCACACATAATTTTTTTTTTT [CACACA_site8890] | 9.9 ± 0.028 |
| TAAAGAAATAAATACATACACACATATATATATATA [CACACA_site3363] | 10.2 ± 0.79 |
| AAACTTTACATTACTTGTACATATATTCTATATAAT [XGTACX_site8640] | 11.1 ± 0.64 |
| CACACTTGCTCCTGTTGTACATAACCATAAGCAACA [XGTACX_site2102] | 11.1 ± 0.73 |
| TGAATATAACAAATATGTACTTAAAATTGTTATATT [XGTACX_site5679] | 11.1 ± 0.76 |
| ATTATTAAAAATATGGGTACATATTATTGTTATATA [XGTACX_site1958] | 11.2 ± 0.84 |
| AAATATATATTCAAAAGTACACAATTTGTTAATAAT [XGTACX_site8917] | 11.4 ± 0.82 |
| TATTTTACGCGGTTTATAATGACATGTTCTATATTT [CACACA_negctrl_site1184] | 10.4 ± 0.23 |
| TTTGATAATAAGATATAATACTTAAATATATATATA [GTGCAC_negctrl_site339] | 9.93 ± 0.39 |
| GTTTTTACTTTTATCTGTACATAATACTACCAATAT [XGTACX_site5414] | 11.2 ± 0.77 |
| TTTTTTTCTTAAAGATGTACTTTTTAAAAACAATCT [XGTACX_site986] | 11.3 ± 0.67 |
| AGACATATTCTTTTTACACACTTGAATAAAAAATAT [CACACA_site1205] | 10.2 ± 0.35 |
| CATTTTATAAAAACAAGTACCCAACATATATATAAT [XGTACX_site5955] | 11.2 ± 0.63 |
| GATGAGGACAGACACACACACATAAGTTGATACATA [CACACA_site7580] | 11.2 ± 0.82 |
| GTTGGGTAATTCGTAACACACATAAAATATATATAA [CACACA_site3986] | 10.13 ± 0.099 |
| CACGCGCACCAACACACACACACACCCATATATATA [CACACA_site2204] | 10.5 ± 0.35 |
| CTGTACACTTAAACGGTGCAAAAAGAAAAAAAAGAA | 11.2 ± 0.95 |
| TGCCTATGACATGAATGTACATTAAAATTAAATAAA [XGTACX_site7126] | 10.8 ± 0.52 |

| Sequence | gcPBM binding intensity (ln) |
| --- | --- |
| AAATACATATTTAGAAGTACATTTATACATTTAATA [XGTACX_site8871] | 11.2 ± 0.79 |
| TTCATTAAAGTTATTACACACAGTTCTTCAACCAAA [CACACA_site7613] | 10.2 ± 0.3 |
| ACAGCTCTAGGACATGCATGTTATATAGAAAAAGAG [TGCATGCA_site703] | 10.3 ± 0.23 |
| AAGTTAATGTTTTGCGCACACTTCTTTTTAATATAA [CACACA_site3938] | 10.7 ± 0.38 |
| TTCTTTATATAAACAAGTACATATAAAATACATATA [XGTACX_site8036] | 11.2 ± 0.79 |
| TATATATTAAGATGCACACACAAGAAGTAATTATAA [CACACA_site5726] | 10.2 ± 0.13 |
| ATTTTTTCTTATAAAAAAGAAAAAGAAAAAGAAAAA [CACACA_negctrl_site1216] | 10.2 ± 0.28 |
| AGTATATTTCTAACTTGTACGAAATTAATAATTTAT [XGTACX_site6635] | 10.9 ± 0.74 |
| TGATATAAAATTAAAGTGCAAAAAAAAAATAAAAAA | 10.1 ± 0.33 |
| ATAATATTATGAACCTGTACATAATTTTTCTTTTCT [XGTACX_site3377] | 11 ± 0.67 |
| AAAAAAAAGAAATAGACACACATATATTTTTAAACA [CACACA_site3954] | 9.825 ± 0.078 |
| TATATATAATATGAATGTACACAAAAAGGTAATACA [XGTACX_site6202] | 11.4 ± 0.68 |
| AACAGCATGAAGTAAAGTACTAGTTTTATTTATTTA [XGTACX_site1116] | 10.7 ± 0.4 |
| GGTCTTTTTATGATATGTACTTATATAATATTATAT [XGTACX_site6458] | 11.2 ± 0.76 |
| ATGTAGAAGTAATGCACACATATGTATATATATATA [CACACA_site2494] | 10.2 ± 0.31 |
| TGATAAGTATACTAAAGTACATGAAAAATAACTTCC [XGTACX_site6908] | 11.1 ± 0.76 |
| TCCTAATGGTTTAATTGTACAAAAAAAAAAAATATA [XGTACX_site322] | 11 ± 0.6 |
| ATAGATGTCTTCATATGTACATAAATTCAAGTATAT [XGTACX_site7492] | 11.3 ± 0.76 |
| TGATTATAAAAGTAGGTGCTACAAAAATTACACATT [GTGCAC_site9530] | 10.03 ± 0.099 |
